Among the data in the supplement of paper PMC9446081 are relative growth values, retold here.

The campaign covered roughly 39,000 compounds. About 220 (0.56%) showed activity. This is one part of the list.
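Also: static incubation at 37 °C against the wild-type strain, values averaged over two biological replicates.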

The test has as its system Escherichia coli K-12 BW25113. The test is described as follows: relative growth (OD600 normalised to plate interquartile mean) (fraction); higher = less growth inhibition, active = 0.2 or less. Particulars: 50 µM; LB; incubation time: overnight (16-24 h).
For `C[C@@H]1CN([C@@H](C)CO)S(=O)(=O)c2ccc(C#CC3(O)CCCC3)cc2O[C@@H]1CN(C)C(=O)Cc1ccccc1`, the relative growth is inactive: 1. For `O=C(C[C@@H]1CC[C@H]2[C@@H](COC[C@@H](O)CN2S(=O)(=O)c2cccc(Cl)c2)O1)NCc1ccncn1`, the relative growth is inactive: 0.993. Regarding `C[C@@H]1CN([C@@H](C)CO)S(=O)(=O)c2ccc(C#Cc3ccccc3)cc2O[C@H]1CN(C)S(=O)(=O)c1cn(C)cn1`, the relative growth is inactive: 1.01. For `C[C@@H]1CN([C@@H](C)CO)S(=O)(=O)c2ccc(C#CC3(O)CCCC3)cc2O[C@H]1CN(C)C(=O)Nc1ccccc1`, the relative growth is inactive: 1.01. With `C[C@@H]1CCCCO[C@@H](CN(C)C(=O)Nc2ccc(F)cc2)[C@@H](C)CN([C@H](C)CO)C(=O)c2cc(NS(=O)(=O)c3cccs3)ccc2O1`, the relative growth is inactive: 0.998. Regarding `C[C@@H]1CCCCO[C@@H](CN(C)S(=O)(=O)c2ccc(F)cc2)[C@@H](C)CN([C@H](C)CO)C(=O)c2cc(NS(=O)(=O)c3ccc(Cl)cc3)ccc2O1`, the relative growth was inactive: 1.02. Take `C[C@H](CO)N1C[C@H](C)[C@@H](CN(C)Cc2cccc(F)c2)OCc2ccccc2-c2c(n(C)c3ccccc23)C1=O`: the relative growth was inactive: 1.01. As for `COc1ccc(S(=O)(=O)N2C[C@H](O)COC[C@H]3O[C@H](CC(=O)NCCCN4CCOCC4)CC[C@@H]32)cc1`, the figure is inactive: 1. As to `COc1ccc([Si](C)(C)[C@@H]2[C@@H](CCOC(=O)NCCCCCC(=O)NO)O[C@@]3(C(=O)N(Cc4cccc(I)c4)c4ccccc43)[C@H]2C)cc1`, the relative growth is inactive: 0.934. In the case of `c1ccc(-c2nc(-c3cccs3)[nH]c2-c2ccccc2)cc1`, the relative growth was inactive: 1.03. Take `Cc1noc(C)c1NC(=O)N(C)C[C@H]1OCCCC[C@@H](C)Oc2ccc(NS(=O)(=O)c3ccccc3)cc2C(=O)N([C@@H](C)CO)C[C@@H]1C`: the relative growth was inactive: 0.975.

On to `C[C@H](CO)N1C[C@H](C)[C@@H](CN(C)Cc2ccc(C(=O)O)cc2)OCCCC[C@H](C)Oc2ccc(NS(=O)(=O)c3ccc(F)cc3)cc2C1=O`, for which the relative growth was inactive: 0.967. Consider `CNC(=O)C[C@@H]1CC[C@H]2[C@@H](COc3ccc(NC(=O)c4ccc(C(F)(F)F)cc4)cc3C(=O)N2C)O1`, for which the relative growth was inactive: 1.03. With `C[C@@H]1CCCCO[C@H](CN(C)Cc2ccccc2)[C@@H](C)CN([C@@H](C)CO)C(=O)c2cc(NC(=O)Nc3ccc(F)cc3)ccc2O1` the figure was inactive: 1.03. `C[C@H]1CN([C@@H](C)CO)C(=O)c2cc(-c3cncnc3)cnc2O[C@@H]1CN(C)C(=O)CN1CCOCC1`: the relative growth is inactive: 0.985. Take `CCCCOc1ccc(C(=O)CCN2CCCCC2)cc1.Cl`: the relative growth was inactive: 0.881. Regarding `COc1ccc(NC(=O)N(C)C[C@@H]2OCCCC[C@H](C)Oc3ccc(NC(=O)NC4CCCCC4)cc3C(=O)N([C@@H](C)CO)C[C@@H]2C)cc1`, the relative growth is inactive: 1.02.

For `O=C(C[C@H]1C=C[C@H](NS(=O)(=O)c2ccccc2)[C@@H](CO)O1)NCc1ccncn1`, the relative growth was inactive: 0.999.

With `C[C@@H]1CN([C@H](C)CO)C(=O)c2cc(C3=CCCC3)cnc2O[C@H]1CN(C)C(=O)Nc1ccc(C(F)(F)F)cc1`, the relative growth was inactive: 0.979.

For the molecule `COC(=O)Cc1cccn1C`, the relative growth was inactive: 0.978. As for `C[C@@H]1CN([C@H](C)CO)C(=O)c2cc(NC(=O)C3CC3)ccc2O[C@@H]1CN(C)Cc1ccc(C(=O)O)cc1`, the figure is inactive: 1.01.

As for `COc1ccc(S(=O)(=O)N(C)C[C@H]2Oc3c(NC(=O)Nc4cccc5ccccc45)cccc3C(=O)N([C@H](C)CO)C[C@H]2C)cc1`, the relative growth was inactive: 1.04.

Regarding `C[C@@H]1CN([C@@H](C)CO)C(=O)Cc2cc(NC(=O)CCCN(C)C)ccc2O[C@@H]1CN(C)S(=O)(=O)c1ccc(Cl)cc1`, the relative growth was inactive: 0.999. `CN(C)CCCNC(=O)C[C@@H]1CC[C@@H]2[C@H](COC[C@@H](O)CN2S(=O)(=O)c2ccc(F)cc2)O1`: the relative growth was inactive: 1.04. `CN1CCN(C(=O)C[C@@H]2CC[C@H]3[C@@H](COc4ccc(NC(=O)C5CCCCC5)cc4C(=O)N3C)O2)CC1`: the relative growth was inactive: 0.992. In the case of `CCC(=O)NC[C@H](Cc1ccc(OCCc2nc(-c3ccccc3)oc2C)cc1)N/C(C)=C\C(=O)c1ccc(C(F)(F)F)cc1`, the relative growth is inactive: 1.08. For `C[C@H]1CN([C@@H](C)CO)C(=O)c2c(c3ccccc3n2C)-c2ccccc2CO[C@H]1CN(C)C(=O)Nc1ccc(-c2ccccc2)cc1`, the relative growth is inactive: 1.03. Consider `Cc1ccc(S(=O)(=O)N2C[C@@H](O)COC[C@H]3O[C@H](CC(=O)NCc4ccc(C)c(C)c4)CC[C@@H]32)cc1`, for which the relative growth was inactive: 0.99. With `NCc1n[nH]c(=O)c2ccccc12` the figure was inactive: 0.967; with `COc1cccc(S(=O)(=O)N[C@H]2C=C[C@H](CC(=O)NC3CCC3)O[C@H]2CO)c1`, inactive: 0.988; with `COc1ccc(NC(=O)N(C)C[C@@H]2OCCCC[C@H](C)Oc3ccc(NC(=O)Nc4cccc5ccccc45)cc3C(=O)N([C@H](C)CO)C[C@@H]2C)cc1`, inactive: 1.02. With `C[C@H](CO)N1C[C@H](C)[C@H](CN(C)C(=O)Nc2ccnc(N3CCOCC3)c2)OCc2cn(nn2)CCCC1=O`, the relative growth was inactive: 0.98.

Take `C[C@H](CO)N1C[C@H](C)[C@@H](CN(C)S(=O)(=O)c2cccs2)OCCCC[C@H](C)Oc2ccc(NC(=O)C3CCCCC3)cc2C1=O`: the relative growth is inactive: 0.997.

Consider `Cn1c(=O)c2c(ncn2CCNC2=NCCC2)n(C)c1=O`, for which the relative growth is inactive: 0.984. As for `COC(=O)c1c2oc(c1C(=O)OC)C(=O)N[C@@H](Cc1ccccc1)Cn1cc(nn1)[C@@H](Cc1ccccc1)NC(=O)N[C@H](CO)CC2`, the figure is inactive: 0.946; as for `O=c1ccc(=O)n(CCO)[nH]1`, inactive: 0.947; as for `CO[C@H]1CN(C)C(=O)c2ccc(NC(=O)C3CC3)cc2OC[C@@H](C)N(C(=O)C2CCOCC2)C[C@@H]1C`, inactive: 1.01.

Consider `COc1ccc(NC(=O)Nc2ccc3c(c2)C(=O)N([C@H](C)CO)C[C@@H](C)[C@H](CN(C)Cc2ccc(Cl)c(Cl)c2)O3)cc1`, for which the relative growth is inactive: 1. On to `O=C1CNC(=O)CN1`, for which the relative growth is inactive: 1.02.

For `C[C@@H]1CN([C@@H](C)CO)C(=O)Cc2cc(NC(=O)Cn3cnnn3)ccc2O[C@@H]1CN(C)CC1CC1`, the relative growth is inactive: 0.99.
